The supplement of paper PMC9151546
Many values rest on one well or one pass, so single values are uncertain.

Assays:
[1] = system: CHO-K1; assay: hypodiploid nuclei frequency (% of nucleated events); higher = more hypodiploid events (aneugenic)
Experimental: (§1)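 Flow-cytometric in vitro micronucleus assay (Litron MicroFlow) in CHO-K1 cells in 96-well plates, 19 concentrations (4.5-200 µM, n=1 per concentration). Without S9, cells were exposed for 24 h and sampled at 48 h. With Aroclor 1254-induced rat liver S9, cells were exposed for 3-4 h and sampled at 27-28 h. Read-outs are %MN and %hypodiploid nuclei relative to nucleated events, and relative survival as the nuclei-to-bead ratio versus the 1% DMSO vehicle control (x100).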

[2] = system: CHO-K1; assay: relative survival (nuclei to bead ratio vs DMSO control) (% of vehicle control); higher = more surviving cells
Experimental: as §1
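Throughout, for hypodiploid nuclei frequency (% of nucleated events): hypodiploid nuclei gated on a flow cytometer with 488 nm excitation after SYTOX Green staining, cultures at 37 °C, positive controls vinblastine without S9 and cyclophosphamide with S9.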
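Throughout, for relative survival (nuclei to bead ratio vs DMSO control): Lysed-cell nuclei stained with SYTOX Green and counted against counting beads by flow cytometry at 488 nm excitation, with vinblastine (no S9) and cyclophosphamide (plus S9) as positive controls.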

ClC1=C(Cl)C2(Cl)C3C(Cl)C(Cl)CC3C1(Cl)C2(Cl)Cl (stereo not drawn) [Chlordane]
Settings | hypodiploid nuclei frequency, [1] [%] | relative survival, [2]
concentration: 4.5 (µM), S9 metabolic activation: with S9, exposure time: 3-4 hours | – | 99
concentration: 4.5 (µM), S9 metabolic activation: without S9, exposure time: 24 hours | – | 89.9
concentration: 5.63 (µM), S9 metabolic activation: with S9, exposure time: 3-4 hours | – | 98.2
concentration: 5.63 (µM), S9 metabolic activation: without S9, exposure time: 24 hours | – | 80.5
concentration: 7.04 (µM), S9 metabolic activation: with S9, exposure time: 3-4 hours | – | 85
concentration: 7.04 (µM), S9 metabolic activation: without S9, exposure time: 24 hours | – | 76.3
concentration: 8.8 (µM), S9 metabolic activation: with S9, exposure time: 3-4 hours | – | 89.7
concentration: 8.8 (µM), S9 metabolic activation: without S9, exposure time: 24 hours | – | 82.1
concentration: 11 (µM), S9 metabolic activation: with S9, exposure time: 3-4 hours | – | 77.7
concentration: 11 (µM), S9 metabolic activation: without S9, exposure time: 24 hours | – | 66.3
concentration: 13.7 (µM), S9 metabolic activation: with S9, exposure time: 3-4 hours | – | 83.3
concentration: 13.7 (µM), S9 metabolic activation: without S9, exposure time: 24 hours | – | 88.5
concentration: 17.2 (µM), S9 metabolic activation: with S9, exposure time: 3-4 hours | – | 63.8
concentration: 17.2 (µM), S9 metabolic activation: without S9, exposure time: 24 hours | – | 66.8
concentration: 21.5 (µM), S9 metabolic activation: with S9, exposure time: 3-4 hours | – | 77.1
concentration: 21.5 (µM), S9 metabolic activation: without S9, exposure time: 24 hours | – | 77
concentration: 26.8 (µM), S9 metabolic activation: with S9, exposure time: 3-4 hours | 0.06 | 112
concentration: 26.8 (µM), S9 metabolic activation: without S9, exposure time: 24 hours | 0.5 | 79.7
concentration: 33.6 (µM), S9 metabolic activation: with S9, exposure time: 3-4 hours | 0.12 | 104
concentration: 33.6 (µM), S9 metabolic activation: without S9, exposure time: 24 hours | 0.76 | 82.1
concentration: 41.9 (µM), S9 metabolic activation: with S9, exposure time: 3-4 hours | 0.12 | 97
concentration: 41.9 (µM), S9 metabolic activation: without S9, exposure time: 24 hours | 0.88 | 64.1
concentration: 52.4 (µM), S9 metabolic activation: with S9, exposure time: 3-4 hours | 0.14 | 108
concentration: 52.4 (µM), S9 metabolic activation: without S9, exposure time: 24 hours | 1 | 80.9
concentration: 65.5 (µM), S9 metabolic activation: with S9, exposure time: 3-4 hours | 0.26 | 69.9
concentration: 65.5 (µM), S9 metabolic activation: without S9, exposure time: 24 hours | 1.48 | 57.9
concentration: 81.9 (µM), S9 metabolic activation: with S9, exposure time: 3-4 hours | 0.19 | 63.4
concentration: 81.9 (µM), S9 metabolic activation: without S9, exposure time: 24 hours | 1.94 | 50.6
concentration: 102 (µM), S9 metabolic activation: with S9, exposure time: 3-4 hours | 0.3 | 51.2
concentration: 102 (µM), S9 metabolic activation: without S9, exposure time: 24 hours | 1.32 | 44.7
concentration: 128 (µM), S9 metabolic activation: with S9, exposure time: 3-4 hours | 0.41 | 46.6
concentration: 160 (µM), S9 metabolic activation: with S9, exposure time: 3-4 hours | – | 38
concentration: 200 (µM), S9 metabolic activation: with S9, exposure time: 3-4 hours | – | 16
